# In the RNAGym collection of RNA variant scans (doi:10.1093/nar/gkz1192):
# Read counts are not given, so values of variants with three or more changes are uncertain.
# B1: CPEB3 Ribozyme (parent)
# chain: UAACAGGGGGCCACAGCAGAAGCGUUCACGUCGCAGCCCCUGUCAGAUUCUGGUGAAUCUGCGAAUUCUGCUGUAUAUCUC
# Variants of: B1
# Experiment: self-cleavage, relative activity (ratio to wild type); higher = more cleavage; in vitro, sequencing
# Outline: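 Barcoded CPEB3 ribozyme mutants, produced by rounds of error-prone PCR, self-cleaved while being transcribed with T7 RNA polymerase for 5 hours at 37°C and during a subsequent 15 min DNase I step before EDTA was added. Sequencing of template-switched cDNA on Illumina gave cleaved and total reads, and DNA sequencing assigned barcodes to variants. Each variant's relative activity is its cleaved/total read fraction divided by the unmutated ribozyme's fraction, averaged across three batches. A variant needed a minimum of 5 reads.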
row,Variant,self-cleavage
1,A28C C34A A64U,0.16
2,A28G G42A U48C A57G,0.17
3,G30A U31A U78C,0.09
4,G30A U31C U69G U74C A75U,0.13
5,G30A A56G U67C C79G,0.15
6,A28G U54C U58A A65G,0.07
7,A28G U51A U66C,0.58
8,A28U U58C U67C U80C,0.1
9,C29A U69C U80A,0.37
10,U26G G52A U78A,0.19
11,A28C A45U U49C U51A A65G U72C,0.02
12,A28G U41C A47G,0.72
13,C29A U41C A64G,0.52
14,C27U U58C U67A,0.07
15,A28U G30U C38A U43G,0.17
16,C29U C34U U43C U48C U51A,0.1
17,A28U U54A U60C U76C,0.36
18,A28G C29U G33C U76C,0.2
19,C29U U60G U72C,0.35
20,G30A U51C A64G,0.53
21,G30C U49A A56U,0.16

row,Variant,self-cleavage
1,G30C A45G U78C,0.1
2,C29A A35C A45G U58A U72C,0.2
3,A28G U74C U80A,1.21
4,C27A A65U U69C G70C,0.09
5,A28U C40U U41C U74C,1.01
6,A28G A56C A57G,0.29
7,A28G U43G U54C U60C C62U U69C,0.15
8,A28G A35U U51C U66C A75G,0.12
9,A28G A57G U80A,0.72
10,A28G A35U U51A G55A A57G U74C A75G,0.07
11,C29U U31A U66C U80A,0.14
12,A28U U48C U49C U76C,0.19
13,C29U C39A U60C G61A,0.08
14,A28G A35G U43C U60C,0.36
15,A28C U41G A56U,0.15
16,C29U U43A U51A A56U,0.12
17,C29U C32A A45G,0.07
18,C29A A57G U69C U74C,0.2
19,G30A A45U U69A,0
20,G30A U58C C68U,0.05
21,C29U U72C U80A,0.6

row,Variant,self-cleavage
1,A28U U41C U48C U58A C71U U78C,0.07
2,A28U G42A A77G,0.27
3,A28U U51C A56G,0.38
4,A28G A35G A56U U67C C71U,0.35
5,A28U A35U A56G U67A U69C A77C,0.07
6,C29U A35U A47G U72C,0.14
7,A28G U54C C68A A75U,0.12
8,A28U U41C G52A,0.94
9,C27A C34G A64G U72C,0.04
10,C27U U43C U48C U72A,0.13
11,A28G G33A A56G,0.43
12,G30U A57C U72A,0.1
13,A28G U49A U76G A77G,0.14
14,C27U U48C C62U A75U,0.08
15,A28U A35G A47G U54C U74A,1.25
16,A28U G53A A56G U76A,0.66
17,C29A U31C A75G,0.07
18,A28U U41C U80C,1.16
19,C27A U43A U48C U49C A57G,0.1
20,A28C C50G U54C U67A,0.07
21,A28G G52U A57G,0.47

row,Variant,self-cleavage
1,C29G C37U A45G,0.17
2,C29A U48C U66C U80C,0.18
3,A28C G36U U43A U49A U69A U72C,0.14
4,A28U A56G A65U U66C U80A,0.25
5,A28G C29U A35U U51C A75U,0.23
6,A28G A35G U76A,1.21
7,A28U A35G G36A A56G U74C,0.43
8,A28G U51A U78C,0.46
9,A28G U41C C59U G63U U66A U80C,0.17
10,C29A A47G U51G,0.59
11,G30A C37U U80A,0.11
12,C27A U51A U54C,0.36
13,C29U G53A U54A U58C,0.19
14,A28G C34U U74G,0.29
15,A28G C40A A45G,0.19
16,G30A C37U A45G,0.4
17,A28C A64G U66A,0.34
18,G30A A45U U49C A56C A65G U72C,0.05
19,C27A C38A U54C C81A,0.06
20,A28U A35G U80C,1.33
